This is one part of the list.
Assays:
HSkMC = human skeletal muscle cells; assay: cytotoxicity call (relative viability < 0.9); settings: 10 µM
HepG2 = assay: cytotoxicity call (relative viability < 0.9); settings: 10 µM
S. aureus RN4220 = assay: growth inhibition call (relative growth <= 0.2); settings: 50 µM

SMILES	cytotoxicity call (HSkMC)	cytotoxicity call (HepG2)	growth inhibition call (S. aureus RN4220)
COCC#Cc1ccc([C@@H]2[C@H](CO)N3C(=O)CN(C(=O)c4cccnc4)C[C@@H]23)cc1	inactive	inactive	inactive
N=C(N)NCCC(=O)O	inactive	inactive	inactive
COc1ccc(NC(=O)N(C)C[C@@H]2OCCCC[C@H](C)Oc3ccc(NC(=O)c4ccccc4)cc3C(=O)N([C@@H](C)CO)C[C@@H]2C)cc1	inactive	inactive	inactive
C[C@H](CO)N1C[C@H](C)[C@@H](CN(C)C(=O)Nc2cccc3ccccc23)Oc2ccc(NC(=O)Cn3cnnn3)cc2CC1=O	inactive	inactive	inactive
Cc1noc(C)c1S(=O)(=O)N(C)C[C@@H]1Oc2ccc(N(C)C)cc2CC(=O)N([C@@H](C)CO)C[C@@H]1C	inactive	inactive	inactive
Cc1noc(C)c1S(=O)(=O)N(C)C[C@@H]1OCCCC[C@@H](C)Oc2ccc(NC(=O)Nc3cccc4ccccc34)cc2C(=O)N([C@@H](C)CO)C[C@H]1C	inactive	inactive	inactive
CC(C)NC(=O)N(C)C[C@H]1Oc2c(NC(=O)C3CCCCC3)cccc2C(=O)N([C@@H](C)CO)C[C@H]1C	inactive	inactive	inactive
CC(C)NC(=O)Nc1cccc2c1O[C@H](CN(C)S(=O)(=O)c1ccc(Cl)cc1)[C@@H](C)CN([C@H](C)CO)C2=O	inactive	inactive	inactive
C[C@@H]1CN([C@H](C)CO)C(=O)c2cc(C#CCN(C)C)cnc2O[C@@H]1CN(C)S(C)(=O)=O	inactive	inactive	inactive
Cn1ccnc1CN1CC[C@]2(COCCN(S(C)(=O)=O)C2)C1	inactive	inactive	inactive
C[C@@H]1CCCCO[C@H](CN(C)CC2CC2)[C@H](C)CN([C@@H](C)CO)C(=O)c2cc(NS(=O)(=O)c3cn(C)cn3)ccc2O1	inactive	inactive	inactive
C[C@H](CO)N1C[C@H](C)[C@H](CN(C)Cc2ccc(F)cc2)Oc2cc(C#CC(C)(C)O)ccc2S1(=O)=O	inactive	inactive	inactive
O=C1C2C=CC([C@H]3[C@@H]2C=CC(=O)[C@]32CO2)[C@@]12CO2 (some centres not stated)	inactive	inactive	inactive
NCc1nnnn1C1CCCCC1	inactive	inactive	inactive
O=C(C1=C[C@H](c2csc3ccccc23)C[C@H](OCc2ccc(CO)cc2)O1)N1CCN(Cc2ccccc2)CC1	inactive	inactive	inactive
COC[C@H]1CNN1C(=O)C1CCCC1	inactive	inactive	inactive
COCC#Cc1ccc2c(c1)O[C@H](CN(C)Cc1ccc3c(c1)OCO3)[C@@H](C)CN([C@H](C)CO)S2(=O)=O	inactive	inactive	inactive
Cc1ccc(S[C@]2(C(=O)NCC(C)C)CC(=O)N(Cc3ccccc3C(F)(F)F)[C@@H]2c2ccc(CO)cc2I)cc1	inactive	inactive	inactive
CCCCCCCCCCCCCCCC(=O)OCC(O)C1OC(=O)C(O)=C1O (configuration not stated)	inactive	inactive	inactive
COc1ccc(S(=O)(=O)Nc2ccc3c(c2)C(=O)N([C@H](C)CO)C[C@@H](C)[C@@H](CN(C)C(=O)Nc2cccc4ccccc24)OCCCC[C@@H](C)O3)cc1	inactive	inactive	inactive

SMILES	cytotoxicity call (HSkMC)	cytotoxicity call (HepG2)	growth inhibition call (S. aureus RN4220)
Cc1ccc(/C=N/Nc2cnnc(=O)[nH]2)o1	inactive	inactive	inactive
CS(=O)(=O)CC(=O)N1C[C@H]2COC[C@@]2(COc2cccnc2)C1	inactive	inactive	inactive
CO[C@H]1O[C@H](CO)[C@@H](OC(=O)Nc2ccccc2-c2ccccc2)[C@H](OC(=O)Nc2ccccc2-c2ccccc2)[C@@H]1OC(=O)Nc1ccccc1-c1ccccc1	inactive	inactive	inactive
O=C1O[C@H](c2ccccc2)[C@H](c2ccccc2)N2[C@H]1[C@@H](C(=O)O)[C@]1(C(=O)Nc3ccc(C#CC4=CCCCC4)cc31)[C@H]2c1ccccc1OCCO	inactive	active	active
C[C@@H]1CCCCO[C@@H](CN(C)C(=O)Nc2ccc3c(c2)OCO3)[C@H](C)CN([C@@H](C)CO)C(=O)c2cc(NC(=O)c3ccncc3)ccc2O1	inactive	inactive	inactive
C[C@@H]1CN([C@H](C)CO)S(=O)(=O)c2ccc(C#CCN(C)C)cc2O[C@H]1CN(C)C(=O)c1ccccc1F	inactive	inactive	inactive
O=C(C[C@H]1CC[C@H]2[C@@H](COC[C@@H](O)CN2C(=O)Nc2cccc(F)c2)O1)NCc1ccccc1Cl	inactive	inactive	inactive
C[C@H]1CN([C@@H](C)CO)C(=O)Cc2cc(NC(=O)Nc3ccc(F)cc3)ccc2O[C@@H]1CN(C)S(=O)(=O)c1cn(C)cn1	inactive	inactive	inactive
CN1C(=O)c2cc(NC(=O)c3ccc(F)c(F)c3)ccc2OC[C@@H]2O[C@@H](CC(=O)N3CCOCC3)CC[C@@H]21	inactive	inactive	inactive
COc1ccc(CN(C)C[C@H]2Oc3c(NC(=O)Nc4ccc(C(F)(F)F)cc4)cccc3C(=O)N([C@@H](C)CO)C[C@@H]2C)cc1	inactive	inactive	inactive
COc1ccc(CN(C)C[C@@H]2OCCCC[C@H](C)Oc3ccc(NC(=O)Nc4ccc(C(F)(F)F)cc4)cc3C(=O)N([C@H](C)CO)C[C@@H]2C)cc1	active	active	inactive
C[C@H](C(=O)N(C)C[C@H]1OCc2ccccc2-c2c(n(C)c3ccccc23)C(=O)N([C@@H](C)CO)C[C@@H]1C)c1ccccc1	inactive	active	inactive
N=C1SCCN1CC(=O)O	inactive	inactive	inactive
C[C@H](CO)N1C[C@H](C)[C@@H](CN(C)S(=O)(=O)c2cccs2)Oc2ccc(NC(=O)c3ccncc3)cc2CC1=O	inactive	inactive	inactive
Nc1cc(=O)nc2[nH][nH]c(=S)n12	inactive	inactive	inactive
O=C(C[C@@H]1C=C[C@@H](NS(=O)(=O)c2ccc(F)cc2)[C@H](CO)O1)N1CCC(Cc2ccccc2)CC1	inactive	inactive	inactive
CN1C(=O)c2cc(NC(=O)c3ccc(F)c(F)c3)ccc2OC[C@H]2O[C@@H](CC(=O)N3CCOCC3)CC[C@H]21	inactive	inactive	inactive
C[C@H](CO)N1C[C@H](C)[C@H](CN(C)S(=O)(=O)c2cccs2)Oc2ccc(NS(=O)(=O)c3cccs3)cc2CC1=O	inactive	inactive	inactive
C[C@@H]1CN([C@H](C)CO)C(=O)c2cc(NC(=O)C3CCCCC3)ccc2O[C@@H](C)CCCCO[C@@H]1CN(C)C(=O)NC1CCCCC1	inactive	inactive	inactive
Cc1ccc(S[C@]2(C(=O)NCC(F)(F)F)CC(=O)N(Cc3ccccc3Cl)[C@@H]2c2ccc(CO)cc2I)cc1	inactive	inactive	inactive

SMILES	cytotoxicity call (HSkMC)	cytotoxicity call (HepG2)	growth inhibition call (S. aureus RN4220)
CC(=O)NC1=NC(=O)CS1	inactive	inactive	inactive
Cc1noc(C)c1NC(=O)N(C)C[C@H]1OCCCC[C@H](C)Oc2ccc(NC(=O)c3ccccc3)cc2C(=O)N([C@@H](C)CO)C[C@H]1C	inactive	inactive	inactive
Cn1c(=O)n(C)c2cc(CN)ccc21	inactive	inactive	inactive
C[C@H]1CN([C@@H](C)CO)C(=O)c2cc(C#Cc3ccccc3)cnc2O[C@@H]1CN(C)S(=O)(=O)c1ccccc1F	inactive	inactive	inactive
C[C@H]1CN([C@@H](C)CO)C(=O)Cc2cc(NC(=O)Cc3ccccc3)ccc2O[C@H]1CN(C)Cc1ccc(Oc2ccccc2)cc1	inactive	active	inactive
CN(C)CCN1CCO[C@H]2CN(C(=O)N(C)C)C[C@@H]21	inactive	inactive	inactive
C[C@H]1CCCCO[C@H](CN(C)Cc2ccc(Cl)c(Cl)c2)[C@@H](C)CN([C@@H](C)CO)C(=O)c2cc(N(C)C)ccc2O1	inactive	inactive	inactive
CN1C(=O)/C(=C(/C#N)C(N)=O)c2ccccc21	inactive	inactive	inactive
CC(=O)NCCOCCOCC(=O)N[C@@H]1C/C=C/CCC(=O)N[C@H](c2ccccc2)COC1=O	inactive	inactive	inactive
C[C@@H]1CN([C@@H](C)CO)C(=O)Cc2cc(NC(=O)Cn3cnnn3)ccc2O[C@@H]1CN(C)CC1CC1	inactive	inactive	inactive
Cc1cc(C(=O)Nc2cccc3c2O[C@@H](CN(C)S(=O)(=O)c2cccs2)[C@H](C)CN([C@H](C)CO)C3=O)n(C)n1	inactive	inactive	inactive
C[C@H](CO)N1C[C@H](C)[C@@H](CN(C)C(=O)NC2CCCCC2)OCCCC[C@H](C)Oc2ccc(NC(=O)Nc3cccc4ccccc34)cc2C1=O	inactive	inactive	inactive
COc1cccc(S(=O)(=O)N[C@@H]2C=C[C@H](CC(=O)NC3CCC3)O[C@H]2CO)c1	inactive	inactive	inactive
CC(N)O.Cc1cc(CC(C)CC(C)(C)C)n(O)c(=O)c1 (configuration not stated)	inactive	active	active
c1cc(CNC2CCCC2)cs1	inactive	inactive	inactive
Cc1noc(C)c1NC(=O)Nc1cccc2c1O[C@H](CN(C)S(=O)(=O)c1cn(C)cn1)[C@H](C)CN([C@@H](C)CO)C2=O	inactive	inactive	inactive
C[C@@H]1CN([C@H](C)CO)C(=O)c2cc(NC(=O)Nc3ccc(C(F)(F)F)cc3)ccc2O[C@@H]1CN(C)Cc1ccc(C(=O)Nc2ccccc2N)cc1	inactive	active	inactive
N[C@@H](CO)c1cccc(Br)c1	inactive	inactive	inactive
COc1ccc(NC(=O)N(C)C[C@H]2Oc3ccc(NC(=O)CCCCCC(=O)Nc4ccccc4N)cc3C(=O)N([C@H](C)CO)C[C@@H]2C)cc1	inactive	inactive	inactive

From the antibiotic and cytotoxicity screens of Wong et al. (2023)
